Measured values taken from patent US20240376128A1, “N-CYCLOPROPYLPYRIDO [4, 3-D] PYRIMIDIN-4-AMINE DERIVATIVES AND USES THEREOF” (Jacobio Pharmaceuticals Co., Ltd., priority 2021, published 2024).

Experiments:
[1] = target: T1, K-Ras G12V (Homo sapiens, UniProt P01116, G12V); test: GTP-K-Ras (GppNp-K-Ras) and cRAF interaction assay, HTRF; details: read-out: Biochemical assays, IC50, K-Ras G12V GppNp
Excerpt: (§1) GppNp is an analog of GTP.

[2] = target: T2, K-Ras G12C (Homo sapiens, UniProt P01116, G12C); test: as above; details: read-out: Biochemical assays, IC50, K-Ras G12C GppNp
Excerpt: as §1

[3] = target: T3, K-Ras G12R (Homo sapiens, UniProt P01116, G12R); test: as above; details: read-out: Biochemical assays, IC50, K-Ras G12R GppNp
Excerpt: as §1

[4] = target: K-Ras G12D (Homo sapiens, UniProt P01116, G12D); test: as above; details: read-out: Biochemical assays, IC50, K-Ras G12D GppNp
Excerpt: as §1

[5] = target: T4, K-Ras Q61H (Homo sapiens, UniProt P01116, Q61H); test: as above; details: read-out: Biochemical assays, IC50, K-Ras Q61H GppNp
Excerpt: as §1

[6] = target: T5, K-Ras G12A (Homo sapiens, UniProt P01116, G12A); test: as above; details: read-out: Biochemical assays, IC50, K-Ras G12A GppNp
Excerpt: as §1

[7] = target: T6, K-Ras WT (Homo sapiens, UniProt P01116); test: as above; details: read-out: Biochemical assays, IC50, K-Ras WT GppNp
Excerpt: as §1

[8] = target: T1, K-Ras G12V; test: SOS1 catalyzed nucleotide exchange assay (GDP form K-Ras), TR-FRET; details: read-out: Biochemical assays, IC50, K-Ras G12V GDP
Experimental: (§2) The parameters were F486: Excitation 340 nm, Emission 486 nm, Lag time 100 pas, Integration time 200 pas; F515: Excitation 340 nm, Emission 515 nm, Lag time 100 pas, Integration time 200 pas. TR-FRET ratios for each individual wells were calculated by equation: TR-FRET ratio=(Signal F515/Signal F486)*10000.

[9] = target: T2, K-Ras G12C; test: as above; details: read-out: Biochemical assays, IC50, K-Ras G12C GDP
Experimental: as §2

[10] = target: T3, K-Ras G12R; test: as above; details: read-out: Biochemical assays, IC50, K-Ras G12R GDP
Experimental: as §2

[11] = target: T4, K-Ras Q61H; test: as above; details: read-out: Biochemical assays, IC50, K-Ras Q61H GDP
Experimental: as §2

[12] = target: T5, K-Ras G12A; test: as above; details: read-out: Biochemical assays, IC50, K-Ras G12A GDP
Experimental: as §2

[13] = target: T6, K-Ras WT; test: as above; details: read-out: Biochemical assays, IC50, K-Ras WT GDP
Experimental: as §2

[14] = test system: MKN-1 cell line (K-Ras WT amplification); test: Phospho-ERK1/2(THR202/TYR204) HTRF assay; assay type: cell-based; details: Homo sapiens; MKN-1 cells (K-Ras WT amplification), 2 hours incubation; read-out: p-ERK, IC50(nM) MKN-1
[15] = test system: RERF-LC-Ad1 cell line (K-Ras G12A); test: Phospho-ERK1/2(THR202/TYR204) HTRF assay; assay type: cell-based; details: RERF-LC-Ad1 cells (K-Ras G12A), 2 hours incubation; read-out: p-ERK, IC50(nM) RERF-LC-Ad1
[16] = Mouse pharmacokinetic study; assay type: in vivo; details: female, Balb/c mouse, single dose 10 mg/kg, po, plasma; for AUC(0-t): read-out: AUC0-8h; for Cmax: read-out: Cmax
Experimental: The purpose of this study was to evaluate the pharmacokinetic properties of compounds in Balb/c mouse (♀) following single dose administration. Six mice were needed for each compound and the six mice were divided into two groups (n=3/group), group A and group B. Mice in group A were treated with a single 3 mg/kg dose of compound (iv). Mice in group B were treated with a single 10 mg/kg dose of compound (po). For each mouse in group A, blood samples were collected at the time point of 0.083, 0.5, 1, 2, 4 and 8 h post-dose. For each mouse in group B, blood samples were collected at the time point of 0.5, 1, 2, 4, 6 and 8 h post-dose. Blood samples were placed on ice until centrifugation to obtain plasma samples. The plasma samples were stored at −80° C. until analysis. The concentration of compound in plasma samples was determined using a LC-MS/MS method.
For the prodrug, only the oral PK study was performed and the dosage was adjusted to be equal to 10 mg/kg of parent drug. The concentrations of both prodrug and parent drug in plasma were determined using a LC-MS/MS method.

[17] = test system: NCI-H460 cell line (K-Ras Q61H); test: Phospho-ERK1/2(THR202/TYR204) HTRF assay; assay type: cell-based; details: Homo sapiens; NCI-H460 cells (K-Ras Q61H), 2 hours incubation; read-out: p-ERK, IC50(nM) NCI-H460
[18] = test system: TCC-PAN2 cell line (K-Ras G12R); test: Phospho-ERK1/2(THR202/TYR204) HTRF assay; assay type: cell-based; details: TCC-PAN2 cells (K-Ras G12R), 2 hours incubation; read-out: p-ERK, IC50(nM) TCC-PAN2
[19] = test system: K-Ras mutant and K-Ras WT cell lines indicated in Table 20; test: 3D cell growth inhibition assay (CellTiter-Glo 3D, 6 days); assay type: cell-based; details: 144 h
[20] = test system: K-Ras mutant and K-Ras WT cell lines indicated in Table 20; test: 2D cell growth inhibition assay (CellTiter-Glo, 6 days); assay type: cell-based
Experimental: Each of cells in culture medium was plated in TC-treated 96-well plates at a density indicated in Table 20 and incubated in a cell incubator overnight.

[21] = target: T7, K-Ras G13D (Homo sapiens, UniProt P01116, G13D); test: Nucleotide exchange assay (GDP form K-Ras, no SOS1 added), TR-FRET; details: read-out: Biochemical assays, IC50, K-Ras G13D GDP
Experimental: as §2

[22] = target: T7, K-Ras G13D; test: GTP-K-Ras (GppNp-K-Ras) and cRAF interaction assay, HTRF; details: read-out: Biochemical assays, IC50, K-Ras G13D GppNp
Excerpt: as §1

[23] = test system: AGS cell line (K-Ras G12D); test: Phospho-ERK1/2(THR202/TYR204) HTRF assay; assay type: cell-based; details: Homo sapiens; AGS cells (K-Ras G12D), 2 hours incubation; read-out: p-ERK, IC50(nM) AGS
[24] = test system: SW620 cell line (K-Ras G12V); test: Phospho-ERK1/2(THR202/TYR204) HTRF assay; assay type: cell-based; details: Homo sapiens, SW-620; SW620 cells (K-Ras G12V), 2 hours incubation; read-out: p-ERK, IC50(nM) SW620
[25] = test system: NCI-H358 cell line (K-Ras G12C); test: Phospho-ERK1/2(THR202/TYR204) HTRF assay; assay type: cell-based; details: Homo sapiens; NCI-H358 cells (K-Ras G12C), 2 hours incubation; read-out: p-ERK, IC50(nM) NCI-H358
[26] = Homo sapiens, MKN-1 (K-Ras WT), absolute IC50, read-out: Cell Growth Inhibition, IC50, MKN-1
[27] = Homo sapiens, NCI-H460 (K-Ras Q61H), absolute IC50, read-out: Cell Growth Inhibition, IC50, NCI-H460
[28] = 144 h, AGS (K-Ras G12D), absolute IC50, read-out: Cell Growth Inhibition, IC50, AGS
[29] = Homo sapiens, ASPC1, 144 h, AsPC-1 (K-Ras G12D), absolute IC50, read-out: Cell Growth Inhibition, IC50, AsPC-1
[30] = Homo sapiens, SW-620, 144 h, SW620 (K-Ras G12V), absolute IC50, read-out: Cell Growth Inhibition, IC50, SW620
[31] = TCC-PAN2 (K-Ras G12R), absolute IC50, read-out: Cell Growth Inhibition, IC50, TCC-PAN2
[32] = Homo sapiens, NCI-H358 (K-Ras G12C), absolute IC50, read-out: Cell Growth Inhibition, IC50, NCI-H358

[2H]C([2H])([2H])N(c1nc(OC[C@@]23CCCN2C[C@H](F)C3)nc2c(F)c(-c3cc(O)cc4ccc(F)c(C#C)c34)ncc12)C1CC1 [Compound 4, 4-(4-(cyclopropyl(methyl-d3)amino)-8-fluoro-2-(((2R,7aS)-2-fluorotetrahydro-1H-pyrrolizin-7a(5H)-yl)methoxy)pyrido[4,3-d]pyrimidin-7-yl)-5-ethynyl-6-fluoronaphthalen-2-ol]
pIC50 [1]: 6.63
pIC50 [2]: 6.23
pIC50 [3]: 7.01
pIC50 [4]: 7.05
pIC50 [5]: 6.93
pIC50 [6]: 6.51
pIC50 [7]: 6.75
pIC50 [8]: 9.02
pIC50 [9]: 8.42
pIC50 [10]: 8.27
pIC50 [11]: 8.35
pIC50 [12]: 8.16
pIC50 [13]: 8.05
IC50 [14]: 14.4 nM
IC50 [15]: 7.28 nM
AUC(0-t) [16]: 5640 ng·h/mL
Cmax [16]: 1950 ng/mL
IC50 [17]: 38.3 nM
IC50 [18]: 392 nM
pIC50 [19, 26]: 7.02
pIC50 [19, 27]: 6.29
pIC50 [20, 28]: 7.38
pIC50 [20, 29]: 6.11
pIC50 [20, 30]: 7.64
pIC50 [21]: 8.00

C#Cc1c(F)ccc2cc(O)cc(-c3ncc4c(N(C)C5CC5C)nc(OC[C@@]56CCCN5C[C@H](F)C6)nc4c3F)c12 (stereo partly drawn) [Compound 49, 5-ethynyl-6-fluoro-4-(8-fluoro-2-(((2R,7aS)-2-fluorotetrahydro-1H-pyrrolizin-7a(5H)-yl)methoxy)-4-(methyl(2-methylcyclo-propyl)amino)pyrido[4,3-d]pyrimidin-7-yl)naphthalen-2-ol]
pIC50 [1]: 6.48
pIC50 [2]: ~6.00
pIC50 [3]: 6.84
pIC50 [4]: 6.65
pIC50 [5]: 6.64
pIC50 [6]: < 6.00
pIC50 [7]: 6.50
pIC50 [22]: 7.69
pIC50 [8]: 8.95
pIC50 [9]: 8.22
pIC50 [10]: 8.11
pIC50 [11]: 8.31
pIC50 [12]: 7.60
pIC50 [13]: 8.07
IC50 [14]: 25.9 nM
IC50 [23]: 56.9 nM
IC50 [17]: 71 nM
IC50 [18]: 925 nM
IC50 [24]: 44.1 nM
pIC50 [19, 31]: < 6.00
pIC50 [19, 26]: 6.86
pIC50 [19, 32]: 6.68
pIC50 [19, 27]: 6.19
pIC50 [20, 28]: 6.98
pIC50 [20, 29]: 5.98
pIC50 [20, 30]: 7.82
pIC50 [21]: 8.03
IC50 [25]: 68.9 nM

C#Cc1c(F)ccc2cc(O)cc(-c3ncc4c(N(C)[C@@H]5C[C@H]5F)nc(OC[C@@]56CCCN5C[C@H](OC)C6)nc4c3F)c12 (mixture of isomers) [Compound 5, 5-ethynyl-6-fluoro-4-(8-fluoro-4-((trans-2-fluorocyclopropyl)(methyl)amino)-2-(((2R,7aS)-2-methoxytetrahydro-1H-pyrrolizin-7a(5H)-yl)methoxy)pyrido[4,3-d]pyrimidin-7-yl)naphthalen-2-ol]
pIC50 [1]: 6.84
pIC50 [2]: 6.50
pIC50 [3]: 7.04
pIC50 [4]: 7.19
pIC50 [5]: 6.86
pIC50 [6]: 6.19
pIC50 [8]: 8.49
pIC50 [9]: 8.61
pIC50 [10]: 8.47
pIC50 [11]: 8.79
IC50 [14]: 27.4 nM
IC50 [15]: 20 nM
IC50 [23]: 13.8 nM
AUC(0-t) [16]: 168 ng·h/mL
Cmax [16]: 91.3 ng/mL
IC50 [17]: 113 nM
IC50 [18]: 780 nM
pIC50 [19, 31]: < 6.00
pIC50 [19, 26]: 7.11
pIC50 [19, 32]: 6.78
pIC50 [19, 27]: < 6.00
pIC50 [20, 28]: 7.46
pIC50 [20, 29]: 6.33
pIC50 [20, 30]: 7.85
pIC50 [21]: 8.48

C#Cc1c(F)ccc2cc(O)cc(-c3ncc4c(N(CC)C5CC5)nc(OC[C@@]56CCCN5C[C@H](F)C6)nc4c3F)c12 [Compound 47, 4-(4-(cyclopropyl(ethyl)amino)-8-fluoro-2-(((2R,7aS)-2-fluorotetrahydro-1H-pyrrolizin-7a(5H)-yl)methoxy)pyrido[4,3-d]pyrimidin-7-yl)-5-ethynyl-6-fluoronaphthalen-2-ol]
pIC50 [1]: 6.53
pIC50 [2]: 6.06
pIC50 [3]: 6.80
pIC50 [4]: 6.81
pIC50 [5]: 6.24
pIC50 [6]: < 6.00
pIC50 [7]: 6.48
pIC50 [22]: 7.88
pIC50 [8]: 8.95
pIC50 [9]: 8.33
pIC50 [10]: 8.59
pIC50 [11]: 8.55
pIC50 [12]: 7.98
pIC50 [13]: 8.29
IC50 [14]: 18.6 nM
IC50 [23]: 14.8 nM
IC50 [17]: 45.6 nM
IC50 [18]: 455 nM
IC50 [24]: 8.9 nM
pIC50 [19, 31]: < 6.00
pIC50 [19, 26]: 7.15
pIC50 [19, 32]: 6.62
pIC50 [19, 27]: 6.14
pIC50 [20, 28]: 7.42
pIC50 [20, 29]: 6.32
pIC50 [20, 30]: 7.37
pIC50 [21]: 8.29
IC50 [25]: 121 nM

pIC50: −log10 of the molar value.
